Reference: the supplement of paper PMC11417369
The other results are listed elsewhere or left out.

Test system: PfAP2-HC AP2 domain (GST-tagged)
Test: gcPBM binding intensity (ln(normalized median fluorescence intensity)); higher = stronger DNA binding
Method in brief: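 For binding intensity, the highest Masliner-normalised natural-log median intensity across replicate spots of either probe orientation was taken. Protein bound to the array was stained with Alexa488 anti-GST antibody and scanned at 488 nm. The protein, GST-tagged P. falciparum DNA-binding domains from E. coli at about 25 μg on average, had been applied for 1 h to an Agilent 4 × 180k array of primer-extended double-stranded 36-bp intergenic genomic probes and negative controls.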

Sequence	gcPBM binding intensity (ln)
TTTTAAATAAAATATTGTACATTAAAATTGTAATAT [XGTACX_site2128]	9.39
AAGCAAACATATTAATGTACACACACCCACACACAA [XGTACX_site5806]	11.1
TAAGATAAATGATAAAGTACTTTTTTTTTTTAAATA [XGTACX_site2326]	9.28
ATTATAAATATGTATATACACACTTTTAATATTCAT [CACACA_site9367]	9.83
AATTTTAAAAATATAACACACATATATAAAATATAT [CACACA_site3610]	9.68
AATGAAGAAAAAAAAAGTACATTATTTTTAAAACTT [XGTACX_site563]	9.66
AATTGTCAGAGAATATGTACTTAAGTATTTATTGTT [XGTACX_site1947]	9.62
ATAAAAAAATAAAACACACACATATATATTATATAT [CACACA_site2810]	10.6
TAAATAAAAAAACACACACACATATATATATATATA [CACACA_site2269]	11.4
AATAAGATATCTACAACACACATTTAATTTTTTTTT [CACACA_site1641]	9.77
AATCATAAAGAACATATAATATATATATATATATAT [CACACA_negctrl_site316]	9.73
AATGCATTGATTGCATTCAAAAAAAAAAAAAAAAAA [XGTACX_negctrl_site597]	8.98
AATATATGCTTTCGTTATATTAAATTCAATTTAATG [GTGCAC_negctrl_site76]	9.5
AACAACTATTAATTTACACACATGTATTTATTTTAC [CACACA_site5683]	10.1
TCTTATATATTTATTTGTACATATATATATATATAT [XGTACX_site7214]	9.91
TGTATTACGAAAAAATGTACAGAAAAAGAAACAAAA [XGTACX_site2777]	9.86
TTTGTCATAAGCAATGCATGTAAGTTTCTGACATTA [TGCATGCA_site1007]	9.29
TGGGATAGATCATTTACACACACAAAAAAAAAAAAA [CACACA_site2140]	9.89
ACATATAAAATATTCACACACAAGTTATAGTTCTCG [CACACA_site3626]	10
AATAAATTATATATCACACATATATATTTATATTTA [CACACA_site5964]	9.45
AAATTTATAAAGAACACACACATATATATATATATA [CACACA_site48]	10.7
CAAAACCTAATATGTACACACATATACATCACACTT [CACACA_site7480]	10

Sequence	gcPBM binding intensity (ln)
TTTCTTTCGAATGCTTCACACATTACTCTTAAATAG [CACACA_site5265]	9.62
AAATGTGAACTATAATAATTTCAACGTCTGATATAA [TGCATGCA_negctrl_site440]	9.61
ATATATATATATATAGTGCACATTTATATAATTATT	9.84
ATTTTGTTATTATATATATATATATATATATATATA [XGTACX_negctrl_site590]	9.69
ATTTTAAATTAAATTACACACTACGAATAATATATT [CACACA_site4016]	9.66
ATATTTCTGTCAAGCACACATAATATTAATATATGT [CACACA_site318]	9.89
ATTCATATGAAACACACACACACACCCATAAAAAAA [CACACA_site3246]	10.5
TCTTTTCAATTTTATATGATCTTAATATTTTATGAA [GTGCAC_negctrl_site294]	9.54
TTTTTTTTTTTTTACACACACAAAATATTATAGGTA [CACACA_site7209]	9.92
ATTTTTTACATACTCAAATGTTTTAATTTTTTATAT [CACACA_negctrl_site1213]	9.77
AATATAAGAAAAATAACACACACATAAACATATATA [CACACA_site8899]	10.4
ACATTAAAAAATTGTTTGCACTATATAAAATATTAA [GTGCAC_site9728]	9.51
TTTCTTTTCTTCTCTATTTTTTTTTCACGGCATTAT [TGCATGCA_negctrl_site484]	9.54
TATATATATATATATTGTACTTTATATGTTCTTATA [XGTACX_site7545]	10
AAATATTACATTTGTTAAATAATATGTTATACATAA [XGTACX_negctrl_site484]	9.27
TTTTATAAAGGAAAAGCATGCAGACTAAAAGATCAT [TGCATGCA_site150]	9.65
AAGGGAAAATAATAAAAGAAAAAGAAAAAAAAAAAA [CACACA_negctrl_site1518]	9.36
TAATGGAGAAAAAAAAAACACACGGTACATTCAAAG [CACACA_site3117]	9.97
TGTATAAAAATTTATACACACATTTTATATATTTCA [CACACA_site1015]	9.61
TATTAATTATTATGACATACATATCAGTTATTAAAA [CACACA_negctrl_site600]	9.35
TAATCCATAAGAAGCACACACATATATATATATTTT [CACACA_site1399]	9.99
GAGAGGAACATTATATGTACATATTAATTCTAAAAT [XGTACX_site5433]	9.59

Sequence	gcPBM binding intensity (ln)
ACAAATAAGTTTTATACACACATATAAGTAAATACA [CACACA_site4157]	9.98
TATAGTGATATATACACACACTTGTCTTGTAAAAAT [CACACA_site6594]	9.84
ACAATATTTTTTTATAAACACACATATATATAAATA [CACACA_site9175]	9.68
ATGAACAAGTGGCACACACACATTATAACTAATTTA [CACACA_site5731]	10.1
TTTATTTATTACTAAAGTACTAAATCATATTATTAT [XGTACX_site2574]	9.3
TTCTTTTTTTTTATCACACATATTACAATCTAGTGC [CACACA_site4697]	9.75
AAAATAATATTTCCTTGTACACATATGTATTTGTTC [XGTACX_site4430]	9.92
TTTTCATAATATACATGTACATATATAAATTATTAA [XGTACX_site5206]	9.33
GTATACATGCAAATTTTTATTTACAACCCCAAAAAG [XGTACX_negctrl_site255]	9.68
TTTTTTTCACAAAATACACACAATATATTTTATATC [CACACA_site1138]	9.79
TATTATAATATGCCTTGTACATATAACAAATTTATT [XGTACX_site108]	9.41
ATGTTATAAGATTTATGTACACACATATACACACCT [XGTACX_site1316]	10.5
GTTTCCTTAATATTCACACACATATATATAATATAT [CACACA_site1856]	10.2
TATATATAATATATATGTACGTATATATATAATATA [XGTACX_site8383]	9.57
TTAACATAAATATATACACACCAATGATGGCATTTA [CACACA_site4952]	9.62
TTTATTTTCCAAAGGGTGCACATAGTTGAAACGATA	9.56
AATAAAGCAATAAATACACACATATTTATATTTATA [CACACA_site7390]	9.84
TTTTGGATTGAGGACCTTTTTATAGAATTATGTTTT [TGCATGCA_negctrl_site544]	9.62
ATATATAATTTTTACACACGCAATAAATATATATAT [CACACA_site4283]	9.73
TTTATTATATTTTTTTGTACATATTGATGTATATAA [XGTACX_site6527]	9.6
GCAAATCTTATATGAAGTACATATCTTATAAATAAA [XGTACX_site6903]	9.43
AGCAAAATGAAATAAATTGGAAAATATTACTGAACG [CACACA_negctrl_site1433]	9.59

Sequence	gcPBM binding intensity (ln)
AACAAAGGATTTATATATACATACATACATACATAA [GTGCAC_negctrl_site469]	9.73
ATAAAAAAAAAAAGAAGTACATGTATTAAAATTTAT [XGTACX_site3927]	9.88
TGAATTTACAAAATCATGCACTTAATTACAGAATAA	9.45
CGAACACAAACACAAACACACATCATATATATATAT [CACACA_site4857]	9.96
ATTTTGGAAATAATATGTACATATACATAATATATA [XGTACX_site4177]	9.59
AATATACAAAAAAAAAAAAAAAAAAAAAAGATGGAA [TGCATGCA_negctrl_site550]	9.56
TTAATATTAATTATATGTACATATAATATATATATA [XGTACX_site1757]	9.53
ATCTTTTCATATTGCTGTACAAATTATTTTCATTCG [XGTACX_site492]	9.81
GAGAAATGGAGACACACACACATATTATATATATAT [CACACA_site1532]	10.3
TGTATAAAATTCCATTGTACATATTATTTTACGACA [XGTACX_site7764]	9.6
ATGTTAAACAAATCTATACACACGTATATGACAAAA [CACACA_site1783]	9.71
GGTACATACAGACACACACACAAAAAAAAAAAAATA [CACACA_site6844]	11.2
AAAAGTCTTCAAATTTGTACATATATATATATATAT [XGTACX_site3404]	10.1
TATTTAAAAAATAATACACACATAATATAACAAAAT [CACACA_site3174]	10.2
TGTGTATAAATATACACACACATATAAATATTTTAA [CACACA_site7005]	9.93
ACATATAATATAAATTGTACATATAAATATATTATT [XGTACX_site4268]	9.61
TTTACAACATCAAAATGTACGCATTATTATTATTAA [XGTACX_site3017]	9.44
TGGAGGTCAGTTCACAGTACCCAGGAAATCTGCGGA [XGTACX_site2556]	9.25
TTCACTTTTTTTTTTTTTTTTTTTTTTTTTTTTATT [GTGCAC_negctrl_site350]	9.36
ATGCATAATATACTCTTACACACCATTTCTATATAC [CACACA_site1461]	10
TATAACATAGGACACACACACATACATACACAAAAA [CACACA_site5062]	10.7
TCATATATTTTATACATACACACATATATATATTTT [CACACA_site3941]	10
